Experimental data: the supplement of paper PMC12645437, “Orthogonal IMiD-Degron Pairs Induce Selective Protein Degradation in Cells” (ACS Chemical Biology, 2025)
The list shows a part of the results.

Biological target: no compound (DMSO)
Assay: log2 fold change of degron read counts, EGFP-low vs EGFP+ sorted cells; higher = lower degron-EGFP level without compound (poor expression or instability)
Conditions: compound: DMSO control; 18 h
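Note: jurkat cells carrying a lentiviral library of mutant zinc finger degrons fused to EGFP plus mCherry, mCherry+ cells FACS sorted, degron abundance counted by next-generation sequencing.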

Row | Sequence | log2 fold change of degron read counts
1 | FCCEVCGADFTQKGNLLRHIKL | -1.36
2 | FYCNQCGRNFTQKGNLLRHIKL | 0.0789
3 | FHCNQCGAMFTQKGNLLRHIKL | -0.369
4 | FNCEICGAEFTQKGNLLRHIKL | -2.48
5 | FKCNICGAIFTQKGNLLRHIKL | -0.189
6 | FFCNQCGRYFTQKGNLLRHIKL | 0.873
7 | FECPICGAQFTQKGNLLRHIKL | -0.715
8 | LKCNQCGFHCTQKGNLLRHIKL | 1.19
9 | FRCNQCGASFTQKGNLLRHIKL | -0.417
10 | FDCDVCGAFFTQKGNLLRHIKL | 0.219
11 | LYCEICGFACTQKGNLLRHIKL | -0.015
12 | FACEICGRAFTQKGNLLRHIKL | -1.58
13 | LGCEICGFPCTQKGNLLRHIKL | 0.12
14 | LRCPICGFHCTQKGNLLRHIKL | 0.464
15 | FVCEICGRNFTQKGNLLRHIKL | -1.69
16 | FSCNQCGRDFTQKGNLLRHIKL | -0.561

Row | Sequence | log2 fold change of degron read counts
17 | FECDVCGAPFTQKGNLLRHIKL | -0.943
18 | LCCNQCGFICTQKGNLLRHIKL | 1.31
19 | FWCEICGRHFTQKGNLLRHIKL | -0.0405
20 | FLCNQCGRIFTQKGNLLRHIKL | 0.749
21 | FNCNQCGRGFTQKGNLLRHIKL | -0.768
22 | FQCDVCGAGFTQKGNLLRHIKL | -1.29
23 | FTCPVCGAKFTQKGNLLRHIKL | -0.453
24 | FLCDQCGAGFTQKGNLLRHIKL | -1.76
25 | FECSVCGHCFTQKGNLLRHIKL | -1.17
26 | FRCPQCGATFTQKGNLLRHIKL | -0.358
27 | FDCNQCGHGFTQKGNLLRHIKL | 0.465
28 | FACEICGRKFTQKGNLLRHIKL | -1.6
29 | FGCEICGHDFTQKGNLLRHIKL | -0.763
30 | FFCPICGRKFTQKGNLLRHIKL | -3.14
31 | FHCDVCGANFTQKGNLLRHIKL | -1.56
32 | FFCNICGAPFTQKGNLLRHIKL | 0.476
